This passage reports binding signal results from article PMC12136788.

First the molecules themselves.
T1: UNK ZnF1-3 (human, UniProt Q9C0B0 31-174)
T1 sequence: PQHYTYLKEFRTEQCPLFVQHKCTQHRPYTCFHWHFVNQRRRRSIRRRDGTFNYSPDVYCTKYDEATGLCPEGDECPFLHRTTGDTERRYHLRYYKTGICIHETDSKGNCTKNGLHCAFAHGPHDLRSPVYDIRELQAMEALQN

B1: chr14:78183846:78183847:+_ENSG00000119705_ENST00000557342|hu_hu|hu_hu_hu_mus_False|1_1 (ssRNA)
RNA: GGGAGUUCUACAGUCCGACGAUCUCUCAGAAAUCUUUCUUCAUCAGAUGUUUGAGCUCCGUGCAAAGCCUUUGCUCUUUGAGCUUGAACGUGGAUCUAUGGGAGGGAAAGCACUGUCAGAAAAGGUAAUUUUUUUUUCCGAAGCAACAGAGGAUUGAGCAUCA
B2: chr1:44183430:44183431:+_ENSMUSG00000041684_ENSMUST00000114709|mus_mus|FALSE|FALSE (ssRNA)
RNA: GGGAGUUCUACAGUCCGACGAUCUUUGUAGACUGAUGUUGCCUGGUUGAGGAAGGCAUAAUCUGAGCAGAUCGCAUAAAUUUUCUCUCGAGUGUGAGUCACUGGACAACUCGAUGGAUAAUGCCCAUCUCCUCUGGGCGCUAUCAACAGAGGAUUGAGCAUCA
B3: chr3:49759264:49759265:-_ENSG00000173540_ENST00000308388|hu_mus|FALSE|FALSE (ssRNA)
RNA: GGGAGUUCUACAGUCCGACGAUCCCCGAUAGACUUGUGGGGCAGCACGCUGGCUCCAUUGAGGUACAGUUCAUCAUUAACUAUGACAUCUUCACCCAGCACUGUUACAUUCUCCAUGCGCACCCAUUGGCCCACACGGCAGCGCAACAGAGGAUUGAGCAUCA
B4: 66783198_66785415_346_3pUTR_ENSG00000135720_ENST00000258198|human|control|control (ssRNA)
RNA: GGGAGUUCUACAGUCCGACGAUCUACCAGAACCAUCUUCACCGAAGACCAGGAUGUUCUUGCCGGACGGCAGCUUGGACCUGGCGCGGGUGGACACUUCGCUCAGAAUGGAGGACCAUAGGCUCUGGCCUUCCUCCUCCUCACCAACAGAGGAUUGAGCAUCA
B5: chr11:58768638:58768639:+_ENSMUSG00000078851_ENSMUST00000108817|mus_mus|FALSE|FALSE (ssRNA)
RNA: GGGAGUUCUACAGUCCGACGAUCUCUAAUGAGGUUGUGGGUGGCUCUGAAAAGAGCCUUUGGUGUCUGUAAAAGUCGCACUAACGACCGGUAGGGGCCUCACUUGCCCUUGGCCUUGUGGUGGCUCUCGGUCUUCUUGGGCAGCAACAGAGGAUUGAGCAUCA
B6: chr1:163117127:163117128:-_ENSG00000143248_ENST00000313961|hu_mus|hu_hu_hu_mus_False|1_88 (ssRNA)
RNA: GGGAGUUCUACAGUCCGACGAUCUGCUACAAAGGAUGUAACUCAACACUCACAGGAACUUUUGGAAGCCUGACCAGAUGACUACUUGAUUAGCUCCUUAUAAAAUUCAGAGCGCACAAAGCGGGGCAGAGAAUCCUUUUCCAUCAACAGAGGAUUGAGCAUCA
B7: chr18:35732517:35732518:+_ENSMUSG00000037236_ENSMUST00000166793|mus_hu|FALSE|FALSE (ssRNA)
RNA: GGGAGUUCUACAGUCCGACGAUCUAUAGAGCACAGAUGGGGAUAACCCUUCGGUAAGAGUCCAUGGAAGUCUUCAAUAUUGCUACUUGGAGGAGCGCCUCUCUUUUUCUCAAAGAGAGAUCUCUCUUGUAAGGGGCCAGGACCCAACAGAGGAUUGAGCAUCA
B8: chr1:180854502:180854503:+_ENSG00000143324_ENST00000367589|hu_hu|FALSE|FALSE (ssRNA)
RNA: GGGAGUUCUACAGUCCGACGAUCAGUGUACUUUUCAUGUAUGACCAAGUAAAGAUCCCUAAAAUUUUAAAACAGGUUUUCUAUGGGAUGGCAUGAAAUCCAAUGUUCAUCCUUUAAAACUGCUGGGAGAAAUGGCUGCCAAGGCAACAGAGGAUUGAGCAUCA
B9: chr1:146634147:146634148:-_ENSG00000131791_ENST00000254101|hu_mus|FALSE|FALSE (ssRNA)
RNA: GGGAGUUCUACAGUCCGACGAUCCUCCUCAGAUCGAAACACAUACAUUUCUUGACCGUAAGGCCCAGGGGGUGAGCUGGACAGGUCUCGACAUGACGUCUCCGAGCUUUCCAUAGAGUCUAACUUUAAAGCGUCAAAUACUUCCAACAGAGGAUUGAGCAUCA
B10: chr7:141445308:141445309:+_ENSG00000106028_ENST00000265304|hu_hu|hu_hu_hu_mus_False|8_28 (ssRNA)
RNA: GGGAGUUCUACAGUCCGACGAUCUAUGAUUGUUGUUGCUUGCCGCCUCACAUUGUUUUUAUCCAUGUACUCGCCAUAGUCCACUUUCCCUUCCACAAAUAUACGAGACCCCUUUUUCACAUACUGAUAUGCCACGUCUCUGAGCAACAGAGGAUUGAGCAUCA
B11: 84155842_84280924_356_3pUTR_ENSMUSG00000045658_ENSMUST00000168574|mouse|control|control (ssRNA)
RNA: GGGAGUUCUACAGUCCGACGAUCUGUGGUGGUGCACAGCUCAAUGGCUUCCGGCUCAUGGAAGAGGACUGCUGGUAUAGGUUCCUUUUUCAGUGUUAGGACAUUCAACUUAGACUUCAGCAUGGUCUGGAAGUGCUGCAGGCGCAACAGAGGAUUGAGCAUCA
B12: chr4:128759998:128759999:+_ENSMUSG00000028793_ENSMUST00000168461|mus_mus|motif|central (ssRNA)
RNA: GGGAGUUCUACAGUCCGACGAUCUGCACCAAGACUGGCUGUGUCUUUGGGGAAAAUUUCCUUUUGGACAUCAGCUUGAACUUCGGACCGGCUGUACUUUCCCUUGCCGCUGGAGAGAAUACCACCACUCAGUGUGCCCCCUGACAACAGAGGAUUGAGCAUCA
B13: chr11:29608675:29608676:+_ENSMUSG00000020458_ENSMUST00000102843|mus_hu|FALSE|FALSE (ssRNA)
RNA: GGGAGUUCUACAGUCCGACGAUCUUCUGUAUCGGAAGGAAGUUUUUUCUCAGCUUCUUUCACAAGAACUUUGGGUUUAACUAUGCUCUCUAUCUCUGCUUGAGUGGCCAAAGCAGAAACAUCUGGAGGCAAUAAGAGCACCUUCAACAGAGGAUUGAGCAUCA
B14: chr17:29226239:29226240:-_ENSG00000172171_ENST00000306049|hu_hu|motif|central (ssRNA)
RNA: GGGAGUUCUACAGUCCGACGAUCUAAUUAUACUUUAGCACGUUAACCUCAGAAUUCUAAGGCUGAGAGUCAAACACUGCGGAUUCAUAGAAGGCAAUAGCUUGUAAUAAUGAAUCAUAAAGCUCUUCUACUCUUUGUAGUUCACAACAGAGGAUUGAGCAUCA
B15: chr10:62545423:62545424:+_ENSG00000170312_ENST00000395284|hu_hu|FALSE|FALSE (ssRNA)
RNA: GGGAGUUCUACAGUCCGACGAUCAAACUCAAAGAUGAGAUAUAACCUGGAAUCCUGCAUAAGCACAUCCUGAAGACUGACUAUAUUUGGAUGACGAAGUUCCUUUAAUAGAGAAAUUUCCCGAAUUGCAGUACUAGGAACCCCCAACAGAGGAUUGAGCAUCA
B16: chr1:214814342:214814343:+_ENSG00000117724_ENST00000366955|hu_hu|motif|central (ssRNA)
RNA: GGGAGUUCUACAGUCCGACGAUCGGCACUUAAGGUUUCAGCAACAACAUUCUGGUGAGCAGAAGUGUCUUCCUGUAACUUACGGAUGCGCUGACUUGUUUCAGCCACAAAACUUUGAUGCAUCUGUUCUGCUUUCAUGAGAUUCAACAGAGGAUUGAGCAUCA
B17: chr3:150289932:150289933:+_ENSG00000144895_ENST00000460851|hu_hu|motif|central (ssRNA)
RNA: GGGAGUUCUACAGUCCGACGAUCUUUGUAGUUUUUCACAUCCCACACUUCCAUUUGUCCCCUCAGAUUUCCAAAUCCAGCGGAUACGGAUAUAUGUCCAUGAGGGCUAUAGUAGGCUGCAUUACGAGGACCAGUUCCAAAGUCCAACAGAGGAUUGAGCAUCA
B18: chr7:99968543:99968544:+_ENSMUSG00000030643_ENSMUST00000032879|mus_hu|FALSE|FALSE (ssRNA)
RNA: GGGAGUUCUACAGUCCGACGAUCAAAGACCCUGAGUGAAUCUUCGGACGAGGCACGUCUUCCCCACACCAGCGUUGCCAAUUAAAACAAUUUUGAACAGGAAAUCAUAAUCUUCCAUACUCAUUUACACAGCUUCAAUUUUCUCAACAGAGGAUUGAGCAUCA
B19: chr11:93807532:93807533:+_ENSMUSG00000059474_ENSMUST00000107854|mus_hu|FALSE|FALSE (ssRNA)
RNA: GGGAGUUCUACAGUCCGACGAUCCAGUACAUUUUGAACCGUAAAAGAGAAUGGGGCGAUUGAGUUGUACAACUGGAGUUAUGGCUAAGACAUAAAUCUCCUCUGCAUUAAUUAUUUUUCGGUUCGUCGGCAGUAGGAGUUAGUCAACAGAGGAUUGAGCAUCA
B20: chr4:83122263:83122264:-_ENSMUSG00000028484_ENSMUST00000107214|mus_mus|FALSE|FALSE (ssRNA)
RNA: GGGAGUUCUACAGUCCGACGAUCAUUGGAUUGUUUAGUUGAUGCCUGUUGACUUGAAAAUUUCACUUUCGGAUUGUUAUCUAUCUCCCACAAUCCUUCAUUAAAACCUUUCCGUUUAUUUGGUUUGCCAUACUUUUCCUUAUUCAACAGAGGAUUGAGCAUCA
B21: chr6:33248723:33248724:-_ENSG00000227057_ENST00000374617|hu_mus|FALSE|FALSE (ssRNA)
RNA: GGGAGUUCUACAGUCCGACGAUCUGCUCCCUGGGGCAAGGUCCGGGAACUCAGGGGCUGGAAUGUCCCUCGCAAGUCAAAGAUCUUCAGCUGGUGGUCCAGACCAGAGGUGGCCAUGUACGUGCCUGUAGAAUCUACUGCCACCAACAGAGGAUUGAGCAUCA
B22: chr7:135612270:135612271:-_ENSG00000105887_ENST00000393085|hu_mus|hu_hu_hu_mus_False|18_48 (ssRNA)
RNA: GGGAGUUCUACAGUCCGACGAUCGUUUUUUUCUGAGAUGUUAAAUAGUACUUCAGUGGAAAACAAAACUUAACCUUUUAUUAAUGCAUGUAGUACCAAAAGCAGACAUUUUAGCUUGCUUCCUUUAAAAAUAUUAACAUUAAGCAACAGAGGAUUGAGCAUCA

The list shows a part of the results.

The target in this test is T1, UNK ZnF1-3. Briefly: nsRBNS (natural sequence RNA bind-n-seq); RBNS binding buffer (assumed for nsRBNS): 25 mM Tris pH 7.5, 150 mM KCl, 3 mM MgCl2, 0.01% Triton X-100, 500 ug/ml BSA, 20 U/ml SUPERase-In, 4 C; UNK is unkempt and MSI1 is Musashi-1; names of the RNAs are library labels; protein concentration not given here; high values mean tight binding.
B1: the binding signal was determined as 1.29 enrichment R.

In the case of B2, the binding signal stood at 0.916 enrichment R.

B3 registered a binding signal of 0.94 enrichment R.

Turning to B4, the binding signal was found to be 0.738 enrichment R.

B5 showed a binding signal of 0.753 enrichment R.

As for B6, the binding signal was determined as 1.32 enrichment R.

For B7, the binding signal stood at 1.02 enrichment R.

Molecule B8 came in with a binding signal of 1.28 enrichment R.

Consider B9, for which the binding signal stood at 0.491 enrichment R.

The molecule B10 came in with a binding signal of 0.611 enrichment R.

As for B11, the binding signal was 1.02 enrichment R.

On to B12, for which the binding signal was 1.23 enrichment R.

In turn, B13 gave a binding signal of 0.465 enrichment R.

As to B14, the binding signal was 1.05 enrichment R.

B15: the binding signal came out at 0.85 enrichment R.

The molecule B16 came in with a binding signal of 1.06 enrichment R.

The molecule B17 registered a binding signal of 0.948 enrichment R.

The molecule B18 returned a binding signal of 1.18 enrichment R.

With B19, the binding signal worked out at 0.932 enrichment R.

B20: the binding signal was 0.308 enrichment R.

For B21, the binding signal amounted to 1.15 enrichment R.

Molecule B22 yielded a binding signal of 0.867 enrichment R.
